Measurements taken from the supplement of paper PMC4604168 (melanoma cell lines).
Some of the results follow. Most values come without repeats; read them as rough.

Each compound was assayed on RVH-421 (assay: cell count relative to DMSO control; melanoma cells; higher = more viable cells). Details: library dose: low library concentration; 72 h.
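Also: cell number obtained by counting DAPI-stained nuclei in high-throughput microscope images with image analysis software, screen run in 1,536-well plates.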

Q: `Cn1c(Nc2ccc(C(F)(F)F)cc2)nc2cc(Oc3ccnc(-c4ncc(C(F)(F)F)[nH]4)c3)ccc21` + CCCCCCCCCCCC1=C(O)C(=O)C=C(O)C1=O [Embelin] (first compound 0.08 µM, partner dose 1.2 µM) was tested. Which cell count did it give?
A: 66.8%

Q: For `O=C(CCCCCCC(=O)Nc1ccccc1)NO` [vorinostat] + O=C(O)C(=O)Nc1sc2c(c1C(=O)O)CCNC2 [TCS401] (first compound 0.08 µM, partner dose 1.66667 µM), which cell count is on record?
A: 114%

Q: `O=C(CCCCCCC(=O)Nc1ccccc1)NO` [vorinostat] + CCc1ccc(CCOc2ccc(CC3SC(=O)NC3=O)cc2)nc1 [pioglitazone] (first compound 0.08 µM, partner dose 2 µM) was tested. Which cell count did it give?
A: 100%

Q: Which cell count does the source give for `C#Cc1cccc(Nc2ncnc3cc(OCCOC)c(OCCOC)cc23)c1` [erlotinib] + O=C(Nc1ccccc1)c1cc([N+](=O)[O-])ccc1Cl [GW9662] (first compound 0.8 µM, partner dose 2 µM) here?
A: 89.3%

Q: Which cell count does the source give for `C#Cc1cccc(Nc2ncnc3cc(OCCOC)c(OCCOC)cc23)c1` [erlotinib] + Oc1nc(-c2ccc(C(F)(F)F)cc2)nc2c1CSCC2 [XAV939] (first compound 0.8 µM, partner dose 2 µM) here?
A: 86.3%

Q: Which cell count does the source give for `COCC[n+]1c2c(n(Cc3cnccn3)c1C)C(=O)c1ccccc1C2=O` + CCc1ccc(CCOc2ccc(CC3SC(=O)NC3=O)cc2)nc1 [pioglitazone] (first compound 0.0004 µM, partner dose 2 µM) here?
A: 135%

Q: How did the cell count turn out when `Cn1c(Nc2ccc(C(F)(F)F)cc2)nc2cc(Oc3ccnc(-c4ncc(C(F)(F)F)[nH]4)c3)ccc21` + N#Cc1c(O)c2c(-c3ccc(-c4ccccc4O)cc3)csc2[nH]c1=O [A769662] (first compound 0.08 µM, partner dose 2 µM) was run?
A: 68.2%

Q: `O=C(CCCCCCC(=O)Nc1ccccc1)NO` [vorinostat] + COc1ccc(-c2ccc3c(N4CCOCC4)nc(N4C[C@@H](C)O[C@@H](C)C4)nc3n2)cc1CO [KU0063794] (first compound 0.08 µM, partner dose 0.02 µM) was tested. Which cell count did it give?
A: 119%

Q: Which cell count does the source give for `C#Cc1cccc(Nc2ncnc3cc(OCCOC)c(OCCOC)cc23)c1` [erlotinib] + N#Cc1c(O)c2c(-c3ccc(-c4ccccc4O)cc3)csc2[nH]c1=O [A769662] (first compound 0.8 µM, partner dose 2 µM) here?
A: 117%

Q: With `COCC[n+]1c2c(n(Cc3cnccn3)c1C)C(=O)c1ccccc1C2=O` + COC(=O)c1sccc1S(=O)(=O)Nc1ccc(Nc2ccccc2)cc1OC [GSK0660] (first compound 0.0004 µM, partner dose 1 µM) as the compound, how does the cell count read?
A: 80%

Q: How did the cell count turn out when `COCC[n+]1c2c(n(Cc3cnccn3)c1C)C(=O)c1ccccc1C2=O` + Cn1cc(/C=C2\C(=O)Nc3cccnc32)c2ccccc21 [GW441756] (first compound 0.0004 µM, partner dose 0.4 µM) was run?
A: 94.3%

Q: Which cell count does the source give for `Cn1c(Nc2ccc(C(F)(F)F)cc2)nc2cc(Oc3ccnc(-c4ncc(C(F)(F)F)[nH]4)c3)ccc21` + CCc1ccc(CCOc2ccc(CC3SC(=O)NC3=O)cc2)nc1 [pioglitazone] (first compound 0.08 µM, partner dose 2 µM) here?
A: 76.8%

Q: With `COCC[n+]1c2c(n(Cc3cnccn3)c1C)C(=O)c1ccccc1C2=O` + CC(C)CCN1c2nc(Nc3cc(F)c(O)c(F)c3)ncc2N(C)C(=O)C1C [BID1870] (first compound 0.0004 µM, partner dose 0.2 µM) as the compound, how does the cell count read?
A: 95.6%

Q: With `O=C(CCCCCCC(=O)Nc1ccccc1)NO` [vorinostat] + CC(C)CCN1c2nc(Nc3cc(F)c(O)c(F)c3)ncc2N(C)C(=O)C1C [BID1870] (first compound 0.08 µM, partner dose 0.2 µM) as the compound, how does the cell count read?
A: 125%

Q: Which cell count does the source give for `C#Cc1cccc(Nc2ncnc3cc(OCCOC)c(OCCOC)cc23)c1` [erlotinib] + O=C(O)C(=O)Nc1sc2c(c1C(=O)O)CCNC2 [TCS401] (first compound 0.8 µM, partner dose 1.66667 µM) here?
A: 89.7%

Q: Which cell count does the source give for `C#Cc1cccc(Nc2ncnc3cc(OCCOC)c(OCCOC)cc23)c1` [erlotinib] + COc1ccc2c(c1)CCC1C2CCC2(C)C(NCCCCCCN3C(=O)C=CC3=O)CCC12 [U73122] (first compound 0.8 µM, partner dose 0.4 µM) here?
A: 88.3%

Q: How did the cell count turn out when `C#Cc1cccc(Nc2ncnc3cc(OCCOC)c(OCCOC)cc23)c1` [erlotinib] + Cc1cc([N+](=O)[O-])ccc1NS(=O)(=O)c1cc(Cl)ccc1Cl [FH535] (first compound 0.8 µM, partner dose 1 µM) was run?
A: 102%

Q: `COCC[n+]1c2c(n(Cc3cnccn3)c1C)C(=O)c1ccccc1C2=O` + COc1cc2ncnc(Nc3ccc(Oc4ccccc4)cc3)c2cc1OC [SrcI1] (first compound 0.0004 µM, partner dose 2 µM) was tested. Which cell count did it give?
A: 114%

Q: `Nc1cccc2c1CN(C1CCC(=O)NC1=O)C2=O` (stereo not given) [lenalidomide] + O=c1cc(-c2cccc3c2Sc2ccccc2S3)oc(N2CCOCC2)c1 [KU55933] (first compound 1 µM, partner dose 1 µM) was tested. Which cell count did it give?
A: 130%

Q: Which cell count does the source give for `Nc1cccc2c1CN(C1CCC(=O)NC1=O)C2=O` (stereo not given) [lenalidomide] + COc1ccc(-c2ccc3c(N4CCOCC4)nc(N4C[C@@H](C)O[C@@H](C)C4)nc3n2)cc1CO [KU0063794] (first compound 1 µM, partner dose 0.02 µM) here?
A: 85.8%

Q: Which cell count does the source give for `Nc1cccc2c1CN(C1CCC(=O)NC1=O)C2=O` (stereo not given) [lenalidomide] + Cc1cc([N+](=O)[O-])ccc1NS(=O)(=O)c1cc(Cl)ccc1Cl [FH535] (first compound 1 µM, partner dose 1 µM) here?
A: 111%

Q: How did the cell count turn out when `Nc1cccc2c1CN(C1CCC(=O)NC1=O)C2=O` (stereo not given) [lenalidomide] + COc1cc2ncnc(Nc3ccc(Oc4ccccc4)cc3)c2cc1OC [SrcI1] (first compound 1 µM, partner dose 2 µM) was run?
A: 116%

Q: Which cell count does the source give for `Cn1c(Nc2ccc(C(F)(F)F)cc2)nc2cc(Oc3ccnc(-c4ncc(C(F)(F)F)[nH]4)c3)ccc21` + COc1ccc2c(c1)CCC1C2CCC2(C)C(NCCCCCCN3C(=O)C=CC3=O)CCC12 [U73122] (first compound 0.08 µM, partner dose 0.4 µM) here?
A: 63.3%

Q: For `Cn1c(Nc2ccc(C(F)(F)F)cc2)nc2cc(Oc3ccnc(-c4ncc(C(F)(F)F)[nH]4)c3)ccc21` + O=C(O)C(=O)Nc1sc2c(c1C(=O)O)CCNC2 [TCS401] (first compound 0.08 µM, partner dose 1.66667 µM), which cell count is on record?
A: 75.2%

Q: Which cell count does the source give for `O=C(CCCCCCC(=O)Nc1ccccc1)NO` [vorinostat] + Oc1cc(-c2nc(-c3ccccc3)[nH]c2-c2ccncc2)ccc1Cl [L779450] (first compound 0.08 µM, partner dose 0.2 µM) here?
A: 89.4%

Q: Which cell count does the source give for `O=C(CCCCCCC(=O)Nc1ccccc1)NO` [vorinostat] + O=C1NC(=O)/C(=C/c2ccc(-c3ccc(F)cc3O)o2)S1 [AS252424] (first compound 0.08 µM, partner dose 1 µM) here?
A: 105%

Q: With `COCC[n+]1c2c(n(Cc3cnccn3)c1C)C(=O)c1ccccc1C2=O` + Oc1nc(-c2ccc(C(F)(F)F)cc2)nc2c1CSCC2 [XAV939] (first compound 0.0004 µM, partner dose 2 µM) as the compound, how does the cell count read?
A: 111%

Q: `C#Cc1cccc(Nc2ncnc3cc(OCCOC)c(OCCOC)cc23)c1` [erlotinib] + CCN(CC)CCCCNc1ncc2cc(-c3cc(OC)cc(OC)c3)c(NC(=O)NC(C)(C)C)nc2n1 [PD173074] (first compound 0.8 µM, partner dose 0.1 µM) was tested. Which cell count did it give?
A: 110%

Q: With `COCC[n+]1c2c(n(Cc3cnccn3)c1C)C(=O)c1ccccc1C2=O` + c1cc(-c2cnn3cc(-c4ccc(OCCN5CCCCC5)cc4)cnc23)ccn1 [Dorsomorphin] (first compound 0.0004 µM, partner dose 0.4 µM) as the compound, how does the cell count read?
A: 127%

Q: How did the cell count turn out when `O=C(CCCCCCC(=O)Nc1ccccc1)NO` [vorinostat] + O=C(Nc1ccccc1)c1cc([N+](=O)[O-])ccc1Cl [GW9662] (first compound 0.08 µM, partner dose 2 µM) was run?
A: 130%

Q: For `Nc1cccc2c1CN(C1CCC(=O)NC1=O)C2=O` (stereo not given) [lenalidomide] + O=C(O)C(=O)Nc1sc2c(c1C(=O)O)CCNC2 [TCS401] (first compound 1 µM, partner dose 1.66667 µM), which cell count is on record?
A: 114%

Q: How did the cell count turn out when `COCC[n+]1c2c(n(Cc3cnccn3)c1C)C(=O)c1ccccc1C2=O` + O=c1cc(-c2cccc3c2Sc2ccccc2S3)oc(N2CCOCC2)c1 [KU55933] (first compound 0.0004 µM, partner dose 1 µM) was run?
A: 149%

Q: How did the cell count turn out when `Nc1cccc2c1CN(C1CCC(=O)NC1=O)C2=O` (stereo not given) [lenalidomide] + N#Cc1c(O)c2c(-c3ccc(-c4ccccc4O)cc3)csc2[nH]c1=O [A769662] (first compound 1 µM, partner dose 2 µM) was run?
A: 111%

Q: Which cell count does the source give for `COCC[n+]1c2c(n(Cc3cnccn3)c1C)C(=O)c1ccccc1C2=O` + CCCCCCCCCCCC1=C(O)C(=O)C=C(O)C1=O [Embelin] (first compound 0.0004 µM, partner dose 1.2 µM) here?
A: 78.8%

Q: Which cell count does the source give for `Cn1c(Nc2ccc(C(F)(F)F)cc2)nc2cc(Oc3ccnc(-c4ncc(C(F)(F)F)[nH]4)c3)ccc21` + Cc1cc([N+](=O)[O-])ccc1NS(=O)(=O)c1cc(Cl)ccc1Cl [FH535] (first compound 0.08 µM, partner dose 1 µM) here?
A: 62%
